Measurements published in PubChem BioAssay AID1851 (National Center for Advancing Translational Sciences (NCATS), 2009).
This is a selection; strong and weak results do not stand in their true shares. Results filed as inconclusive are left out. The source made the active and inactive calls. The call rests on the fitted dose curve; in most records, active means well fitted curve in the direction sought with a large enough effect; inconclusive means small, poorly fitted or top-dose-only effect, or effect the other way; inactive means no such curve, though single readings can be large or run the other way.

Each compound was assayed against Cytochrome P450 2C9 (Homo sapiens) (UniProt P11712) (assay: Cytochrome panel assay with activity outcomes). Conditions: recombinant CYP, pro-luciferin dealkylation, luminescence, p450-cyp2c9; at 11.4 µM (top of the series).
Method: The P450 gene superfamily is involved in the metabolism and clearance of xenobiotics. This assay used various human CYP P450 isozymes to measure the dealkylation of various pro-luciferin substrates to luciferin. The luciferin is then measured by luminescence after the addition of a luciferase detection reagent. Pro-luciferin substrate concentration in the assay was equal to its KM for its CYP P450 isozyme. Inhibitors and some substrates limit the production of luciferin, and decrease measured luminescence.
NCGC Assay Protocol Summary:
1, Reagent, 2 uL, Isozyme and Pro-Luciferin
2, Library compounds, 23 nl, 40 uM to 0.24 nM dilution series
3, Controls, 23 nl, Isozyme specific inhibitor
4, Reagent, 2 uL, NADPH regeneration solution
5, Incubation time, 60 min, Isozyme specific temperature
6, Reagent, 4ul, Detection reagent
7, Incubation time, 20 min, Isozyme specific temperature
8, Detection, 1 sec, ViewLux luminescent read
The luciferase-based P450-GloTM Screening Systems were obtained from Promega (Madison, WI) for CYP 1A2 (V9770), CYP 2C9 (V9790), CYP2 C19 (V9880), CYP 2D6 (V9890), and CYP 3A4 Luciferin-PPXE (V9910) and were adapted for 1,536-well microplates and an automated protocol. […]
On the % scale 0 is the no-effect control and ±100 the full control effect.

Sequence of UniProt P11712 (P11712 whole entry, looked up): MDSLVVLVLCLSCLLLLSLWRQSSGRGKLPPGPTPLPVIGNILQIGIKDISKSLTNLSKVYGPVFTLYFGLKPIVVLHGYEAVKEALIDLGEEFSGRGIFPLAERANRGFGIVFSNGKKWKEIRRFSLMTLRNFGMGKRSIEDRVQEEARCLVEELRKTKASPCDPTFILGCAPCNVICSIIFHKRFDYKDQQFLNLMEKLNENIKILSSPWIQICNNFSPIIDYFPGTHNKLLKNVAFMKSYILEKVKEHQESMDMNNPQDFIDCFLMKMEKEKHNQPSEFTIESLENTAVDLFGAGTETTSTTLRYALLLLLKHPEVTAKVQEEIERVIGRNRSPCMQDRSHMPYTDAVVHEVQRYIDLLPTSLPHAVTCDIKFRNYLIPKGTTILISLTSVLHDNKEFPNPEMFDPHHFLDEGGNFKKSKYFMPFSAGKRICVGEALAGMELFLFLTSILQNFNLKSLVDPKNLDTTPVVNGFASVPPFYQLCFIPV

| Structure (SMILES) | activity, negative = inhibition |
| --- | --- |
| CN1[C@@H]2CC[C@H]1CC(OC(=O)[C@@H](O)c1ccccc1)C2 (stereo partly specified) | inactive: 1.96% |
